{
  "source": "paper PMC12136788",
  "binders": {"B1": {"name": "chr2:175094126:175094127:-_ENSG00000138430_ENST00000344357|hu_hu|FALSE|FALSE (ssRNA)", "RNA": "GGGAGUUCUACAGUCCGACGAUCUCUGCUCUCAUUAGGAUCAAUAGUGCAGAACGGGAAGUUUUCUGCUGAAGCCUGACUAUUGGUUAACACAUUGAAGAAAGUAGAUUUCCGUGCUCGGCCUGGGCGAUGACACGGGGUCCCCAACAGAGGAUUGAGCAUCA"}, "B2": {"name": "chr12:39763582:39763583:-_ENSG00000139116_ENST00000544797|hu_mus|hu_hu_hu_mus_False|18_48 (ssRNA)", "RNA": "GGGAGUUCUACAGUCCGACGAUCCUCUAGGAACUGGGCAUUCACUUUGAAUUCAGGAGGGGGCAGCCCGUUUUUAAUCGCUGAGGUUUUUUUUUCUUCAAUACUCUUGAACAGGUGUUUAACAGCUCGAGAGAUGAUGCCCUGCAACAGAGGAUUGAGCAUCA"}, "B3": {"name": "32340806_32341209_1091_CDS_ENSG00000021574_ENST00000315285|human|control|control (ssRNA)", "RNA": "GGGAGUUCUACAGUCCGACGAUCAUCAAAUUUAACAGCUGUUCCAUUGUCCACAAUUUCAUUCAUUAUAAGGUUAGCAAGGUUGCUGUCCACAUUCCUAAAAUUCUUCAAGUCUUUUUUCUUACGAGUAGCAGUUGUAGGGGUCAACAGAGGAUUGAGCAUCA"}, "B4": {"name": "chr7:23239867:23239868:+_ENSG00000136243_ENST00000258742|hu_hu|motif|central (ssRNA)", "RNA": "GGGAGUUCUACAGUCCGACGAUCCCCAAAACCAGCAGGGCUUCCAGAAGAGGCAGCAGCAAAUCCAGAGUUUGUUUUAAAACGGAAGUUCUGAGCAUUAUCACUGCUGCUGUUAUUGACUGGAAAGCCUGGCGACAUAAAUGUCAACAGAGGAUUGAGCAUCA"}, "B5": {"name": "chr11:29607782:29607783:+_ENSMUSG00000020458_ENSMUST00000102843|mus_mus|FALSE|FALSE (ssRNA)", "RNA": "GGGAGUUCUACAGUCCGACGAUCUGCAUUAAAACUUUCAGGCUCUUUAAUUUCUUCCUUUGAGUCCGAUGUUUUUAGUGCUACACUCAUGGCUUCUUCAUAUGGUGGGGGAUUUUCAGGCUCAAGCUUUAUACCGUCAUAACUCAACAGAGGAUUGAGCAUCA"}, "B6": {"name": "chr6:31700055:31700056:-_ENSG00000213719_ENST00000375779|hu_mus|FALSE|FALSE (ssRNA)", "RNA": "GGGAGUUCUACAGUCCGACGAUCUCCACGGAAUGCCUCUGGGAUGGUGAAGCCUCUGUACUUUUUGCACACCACCUGUACUAUGUGAAGCUUUGGCAGCAGGUUGCAGUCAGCCAGGGUGAGCUCAUUGCCGUCCAGAAACUUCAACAGAGGAUUGAGCAUCA"}, "B7": {"name": "chr12:42180722:42180723:-_ENSMUSG00000036295_ENSMUST00000043884|mus_hu|mus_mus_mus_hu_True|48_58 (ssRNA)", "RNA": "GGGAGUUCUACAGUCCGACGAUCCUGUAGGAGAAGAAUCUGUGUGUUAGCUGGCAAUCUGGCUGGGAAAGUUAAAAGCCCUAAAUCAUUACAGUCCACUGUAGAUGCUUCCAUAUAAAUGGAUCUGGGUGUAAACCAAGGCCUCAACAGAGGAUUGAGCAUCA"}, "B8": {"name": "chr1:109605286:109605287:-_ENSG00000197780_ENST00000461096|hu_mus|hu_hu_hu_mus_True|38_108 (ssRNA)", "RNA": "GGGAGUUCUACAGUCCGACGAUCAAGAACAAUAACAACAUUCAGUAACCUCUUUAAAUGCAAUUAUCCUUAUUAUAAGCUAAGCAGAAUAAUAAUUUAAUACAUAGAGUGAACUACACACAAAGCCUGAACCGCGAAAAUGGUCAACAGAGGAUUGAGCAUCA"}, "B9": {"name": "103707702_103709362_1908_CDS_ENSMUSG00000034187_ENSMUST00000103075|mouse|control|control (ssRNA)", "RNA": "GGGAGUUCUACAGUCCGACGAUCUUUCAGUAACACAAGAAGAGCCUGCAAUACCAGGUUGGAGAACCGGGGACCAAUGGGGACAUAAUCGAGCAGCCUCUCAAUGUCAUCCACGACCACACAGCUGAGCUGAGAUUUGUAAGCCAACAGAGGAUUGAGCAUCA"}, "B10": {"name": "chr14:89338683:89338684:+_ENSG00000165533_ENST00000346301|hu_hu|hu_hu_hu_mus_False|48_98 (ssRNA)", "RNA": "GGGAGUUCUACAGUCCGACGAUCGUGGUUGUUGUGGACCAGAGCCAGCCUGAAGCAUUGGUGGGCCAAGUUUGUAUCUCCGAUUCCCACAGCUACAUGCCCCAGGUUGUACCAGACAUCAGCUGCCUCUUCUUCAUUUUCAGCCAACAGAGGAUUGAGCAUCA"}, "B11": {"name": "15870588_15872871_243_3pUTR_ENSG00000182287_ENST00000329235|human|control|control (ssRNA)", "RNA": "GGGAGUUCUACAGUCCGACGAUCACAUACCAUUUUUGCAGUCGAAGCUUUCCCUGACGACUAAAAAGCAACAUAAACUGCAUGGCGGCCGCGGGCCGCGGGCGCGGCGGAGCUUGGCCGGCGGCGGCGGCGGCGGCGAAGGGGCAACAGAGGAUUGAGCAUCA"}, "B12": {"name": "chr9:122289238:122289239:+_ENSMUSG00000032540_ENSMUST00000156520|mus_mus|FALSE|FALSE (ssRNA)", "RNA": "GGGAGUUCUACAGUCCGACGAUCUCCUGUCUUUUACAUCAAAACCUAACCCUUUCGUUCCAUUUCAAAAUGAAAUAUUCUAAACUCCAUCUCAAAAAUGAAGUAUUCUAAAUUGAAAUCUUUUUACAUAAAAAUACUUGGGUUCAACAGAGGAUUGAGCAUCA"}, "B13": {"name": "chr10:44834900:44834901:+_ENSMUSG00000019849_ENSMUST00000099858|mus_hu|FALSE|FALSE (ssRNA)", "RNA": "GGGAGUUCUACAGUCCGACGAUCGAAUGUGAACACCGUCCCCUCAUUGGUCACGUAGUCAUAUUCCCCUUCAAAGUUGUCAAUCAGUUUUACCCACUUCAGGAUUCCCGCGAUGCCACUGGAUUCCUGCUGUAGGUCACAGUACAACAGAGGAUUGAGCAUCA"}, "B14": {"name": "chr13:100201205:100201206:-_ENSMUSG00000052727_ENSMUST00000064762|mus_mus|motif|central (ssRNA)", "RNA": "GGGAGUUCUACAGUCCGACGAUCUUCAGUGAUAUGAAGCACACUGGCACCCAGAGUAGGGUGAUCUGGAGACUGCCGACGGAAGUCCAUAGCAAGAGAAUGCUCAGGGGAUUCCUGGCCGAACUCAAUAGACAUAGAAGACUGCAACAGAGGAUUGAGCAUCA"}},
  "note": "The other results are listed elsewhere or left out.",
  "data": [
    {"biological_target": "T1, UNK ZnF1-3 (human, UniProt Q9C0B0 31-174)", "T1 sequence": "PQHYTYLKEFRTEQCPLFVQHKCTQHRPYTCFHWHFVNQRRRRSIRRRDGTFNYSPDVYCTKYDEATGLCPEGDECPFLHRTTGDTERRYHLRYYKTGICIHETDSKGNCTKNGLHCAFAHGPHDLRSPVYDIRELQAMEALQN", "assay": "nsRBNS (natural sequence RNA bind-n-seq); RBNS binding buffer (assumed for nsRBNS): 25 mM Tris pH 7.5, 150 mM KCl, 3 mM MgCl2, 0.01% Triton X-100, 500 ug/ml BSA, 20 U/ml SUPERase-In, 4 C; UNK is unkempt and MSI1 is Musashi-1; names of the RNAs are library labels; protein concentration not given here; high values mean tight binding", "units": {"binding signal": "enrichment R"}, "values": [
      {"binder": "B1", "binding signal": 1.03},
      {"binder": "B2", "binding signal": 1.76},
      {"binder": "B3", "binding signal": 1.24},
      {"binder": "B4", "binding signal": 1.3},
      {"binder": "B5", "binding signal": 0.56},
      {"binder": "B6", "binding signal": 0.795},
      {"binder": "B7", "binding signal": 1.12},
      {"binder": "B8", "binding signal": 1},
      {"binder": "B9", "binding signal": 1.32},
      {"binder": "B10", "binding signal": 0.7},
      {"binder": "B11", "binding signal": 0.531},
      {"binder": "B12", "binding signal": 1.2},
      {"binder": "B13", "binding signal": 0.433},
      {"binder": "B14", "binding signal": 1.32}
    ]}
  ]
}
